For 32 sequences, binding signal results are on record in paper PMC12820563, “FoxP3 forms a head-to-head dimer in vivo and stabilizes its multimerization on adjacent microsatellites”.

This is one part of the list.

In this assay the target is T1, MBP-FoxP1dN (Mus musculus, UniProt P58462 326-579).
T1 sequence: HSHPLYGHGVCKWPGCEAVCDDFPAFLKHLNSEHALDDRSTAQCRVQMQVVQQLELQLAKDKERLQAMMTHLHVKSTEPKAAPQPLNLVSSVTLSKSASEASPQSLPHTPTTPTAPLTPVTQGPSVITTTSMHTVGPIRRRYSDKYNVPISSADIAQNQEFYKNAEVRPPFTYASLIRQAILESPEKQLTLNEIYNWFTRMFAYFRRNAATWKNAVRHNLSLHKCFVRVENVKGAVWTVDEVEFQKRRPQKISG
The experiment in a line: PD-seq (MBP pull-down with sequencing); 20 mM Tris-HCl pH 7.5, 100 mM NaCl, 1.5 mM MgCl2, 0.4 uM protein, 0.1 uM dsDNA library, 30 min, room temperature, amylose pull-down; high values mean tight binding. The note with it: protein: recombinant; tags: His6-MBP; chain copies: 2; dsDNA, one strand shown. Put shortly:
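Amylose resin was used to capture complexes formed during 30 min at room temperature in Tris pH 7.5 buffer with NaCl and MgCl2 between 0.4 µM His6-MBP-tagged mouse FoxP3 or FoxP1 fragment lacking the N-terminus, expressed in E. coli, and 0.1 µM Klenow-filled double-stranded degenerate DNA library. After three washes, the DNA was released with proteinase K, barcoded by PCR and sequenced on Illumina. Binding is pooled-replicate reads-per-million enrichment, pull-down over input.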
Take “GATGATTGTTCTCCCAGCTGATGAATTTTGTCCATCGAGTAAACAAATTTTCCTAATCTTTCTGTTCAAGCGCCATCTAC”: the binding signal was 1.02 RPM ratio (pull-down/input).

For “GATGATTGTTCTCCCAGCTGATGAATTTCCCAAATCGAGTAAACAAATTTTCCTAATCTTTCTGTTCAAGCGCCATCTAC”, the binding signal was 0.978 RPM ratio (pull-down/input).

Regarding “GATGATTGTTCTCCCAGCTGATGAATTCGTTCCCTCGAGTAAACAAATTTTCCTAATCTTTCTGTTCAAGCGCCATCTAC”, the binding signal was 0.888 RPM ratio (pull-down/input).

Consider “GATGATTGTTCTCCCAGCTGATGAATTGCTGTTCTCGAGTAAACAAATTTTCCTAATCTTTCTGTTCAAGCGCCATCTAC”, for which the binding signal was 1.21 RPM ratio (pull-down/input).

Turning to “GATGATTGTTCTCCCAGCTGATGAATTCTTTCCCTCGAGTAAACAAATTTTCCTAATCTTTCTGTTCAAGCGCCATCTAC”, the binding signal was 0.841 RPM ratio (pull-down/input).

Turning to “GATGATTGTTCTCCCAGCTGATGAATTACAAAGCTCGAGTAAACAAATTTTCCTAATCTTTCTGTTCAAGCGCCATCTAC”, the binding signal is 1.25 RPM ratio (pull-down/input).

As to “GATGATTGTTCTCCCAGCTGATGAATTAGTAGCCTCGAGTAAACAAATTTTCCTAATCTTTCTGTTCAAGCGCCATCTAC”, the binding signal is 0.933 RPM ratio (pull-down/input).

As for “GATGATTGTTCTCCCAGCTGATGAATTAAGAAGGTCGAGTAAACAAATTTTCCTAATCTTTCTGTTCAAGCGCCATCTAC”, the binding signal is 0.734 RPM ratio (pull-down/input).

Take “GATGATTGTTCTCCCAGCTGATGAATTGTGTGATTCGAGTAAACAAATTTTCCTAATCTTTCTGTTCAAGCGCCATCTAC”: the binding signal is 1.2 RPM ratio (pull-down/input).

As to “GATGATTGTTCTCCCAGCTGATGAATTTATACAGTCGAGTAAACAAATTTTCCTAATCTTTCTGTTCAAGCGCCATCTAC”, the binding signal is 1.14 RPM ratio (pull-down/input).

As to “GATGATTGTTCTCCCAGCTGATGAATTACGAAGGTCGAGTAAACAAATTTTCCTAATCTTTCTGTTCAAGCGCCATCTAC”, the binding signal is 0.909 RPM ratio (pull-down/input).

With “GATGATTGTTCTCCCAGCTGATGAATTGCAGAGCTCGAGTAAACAAATTTTCCTAATCTTTCTGTTCAAGCGCCATCTAC”, the binding signal is 0.921 RPM ratio (pull-down/input).

On to “GATGATTGTTCTCCCAGCTGATGAATTAATGACATCGAGTAAACAAATTTTCCTAATCTTTCTGTTCAAGCGCCATCTAC”, for which the binding signal was 1.13 RPM ratio (pull-down/input).

On to “GATGATTGTTCTCCCAGCTGATGAATTGTACCACTCGAGTAAACAAATTTTCCTAATCTTTCTGTTCAAGCGCCATCTAC”, for which the binding signal is 0.996 RPM ratio (pull-down/input).

With “GATGATTGTTCTCCCAGCTGATGAATTTCCCGAATCGAGTAAACAAATTTTCCTAATCTTTCTGTTCAAGCGCCATCTAC”, the binding signal was 0.935 RPM ratio (pull-down/input).

As for “GATGATTGTTCTCCCAGCTGATGAATTTGGTGAATCGAGTAAACAAATTTTCCTAATCTTTCTGTTCAAGCGCCATCTAC”, the binding signal is 0.965 RPM ratio (pull-down/input).

As to “GATGATTGTTCTCCCAGCTGATGAATTCGTGGCCTCGAGTAAACAAATTTTCCTAATCTTTCTGTTCAAGCGCCATCTAC”, the binding signal is 0.842 RPM ratio (pull-down/input).

For “GATGATTGTTCTCCCAGCTGATGAATTCTCCATATCGAGTAAACAAATTTTCCTAATCTTTCTGTTCAAGCGCCATCTAC”, the binding signal is 0.912 RPM ratio (pull-down/input).

Take “GATGATTGTTCTCCCAGCTGATGAATTCGTCCAATCGAGTAAACAAATTTTCCTAATCTTTCTGTTCAAGCGCCATCTAC”: the binding signal was 1.02 RPM ratio (pull-down/input).

In the case of “GATGATTGTTCTCCCAGCTGATGAATTCCGCCTCTCGAGTAAACAAATTTTCCTAATCTTTCTGTTCAAGCGCCATCTAC”, the binding signal is 0.915 RPM ratio (pull-down/input).

“GATGATTGTTCTCCCAGCTGATGAATTATTCGGTTCGAGTAAACAAATTTTCCTAATCTTTCTGTTCAAGCGCCATCTAC”: the binding signal was 0.917 RPM ratio (pull-down/input).

Regarding “GATGATTGTTCTCCCAGCTGATGAATTTGCTGTATCGAGTAAACAAATTTTCCTAATCTTTCTGTTCAAGCGCCATCTAC”, the binding signal was 1.16 RPM ratio (pull-down/input).

In the case of “GATGATTGTTCTCCCAGCTGATGAATTTACACTGTCGAGTAAACAAATTTTCCTAATCTTTCTGTTCAAGCGCCATCTAC”, the binding signal was 1.27 RPM ratio (pull-down/input).

Turning to “GATGATTGTTCTCCCAGCTGATGAATTCATCGGTTCGAGTAAACAAATTTTCCTAATCTTTCTGTTCAAGCGCCATCTAC”, the binding signal was 0.902 RPM ratio (pull-down/input).

Consider “GATGATTGTTCTCCCAGCTGATGAATTTGGCGGCTCGAGTAAACAAATTTTCCTAATCTTTCTGTTCAAGCGCCATCTAC”, for which the binding signal is 0.754 RPM ratio (pull-down/input).

As for “GATGATTGTTCTCCCAGCTGATGAATTGTGCAGATCGAGTAAACAAATTTTCCTAATCTTTCTGTTCAAGCGCCATCTAC”, the binding signal is 1.02 RPM ratio (pull-down/input).

Consider “GATGATTGTTCTCCCAGCTGATGAATTAGGACGTTCGAGTAAACAAATTTTCCTAATCTTTCTGTTCAAGCGCCATCTAC”, for which the binding signal was 0.889 RPM ratio (pull-down/input).

For “GATGATTGTTCTCCCAGCTGATGAATTTATCGAGTCGAGTAAACAAATTTTCCTAATCTTTCTGTTCAAGCGCCATCTAC”, the binding signal is 1.02 RPM ratio (pull-down/input).

With “GATGATTGTTCTCCCAGCTGATGAATTCTTACGATCGAGTAAACAAATTTTCCTAATCTTTCTGTTCAAGCGCCATCTAC”, the binding signal was 0.938 RPM ratio (pull-down/input).

On to “GATGATTGTTCTCCCAGCTGATGAATTGCGTGGTTCGAGTAAACAAATTTTCCTAATCTTTCTGTTCAAGCGCCATCTAC”, for which the binding signal was 1.04 RPM ratio (pull-down/input).

Turning to “GATGATTGTTCTCCCAGCTGATGAATTTTGCAGGTCGAGTAAACAAATTTTCCTAATCTTTCTGTTCAAGCGCCATCTAC”, the binding signal is 0.854 RPM ratio (pull-down/input).

Consider “GATGATTGTTCTCCCAGCTGATGAATTCACGGCCTCGAGTAAACAAATTTTCCTAATCTTTCTGTTCAAGCGCCATCTAC”, for which the binding signal was 0.832 RPM ratio (pull-down/input).
